Data from patent US8252841B2, “Methods of inhibiting bacterial virulence and compounds relating thereto” (priority 2007, dated 2012).

Legend:
[1] = target: T1, human adrenergic receptors (Homo sapiens, UniProt P07550); conditions: HEK293 cells, 1 μM
T1 construct: β2 adrenergic-stimulated cAMP levels in HEK293 cells; endogenous in cells; host or cells: HEK293
From the text: (§1) Structures of the compounds used in this assay are shown below: […]

[2] = tested on: human adrenergic receptors; conditions: HEK293 cells, 1 μM
From the text: as §1

T1 sequence (P07550 whole entry): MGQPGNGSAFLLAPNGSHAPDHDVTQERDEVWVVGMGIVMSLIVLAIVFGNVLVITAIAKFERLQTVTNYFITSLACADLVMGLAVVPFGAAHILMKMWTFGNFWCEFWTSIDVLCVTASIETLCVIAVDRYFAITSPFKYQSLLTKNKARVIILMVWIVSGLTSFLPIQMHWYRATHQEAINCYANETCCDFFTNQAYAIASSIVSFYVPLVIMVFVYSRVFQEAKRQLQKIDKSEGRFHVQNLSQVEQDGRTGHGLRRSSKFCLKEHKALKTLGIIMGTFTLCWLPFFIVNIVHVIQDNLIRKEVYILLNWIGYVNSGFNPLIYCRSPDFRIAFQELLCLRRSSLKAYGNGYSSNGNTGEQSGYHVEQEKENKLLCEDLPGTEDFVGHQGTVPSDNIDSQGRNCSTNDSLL

Compound: O=S(=O)(Nc1ccccc1)c1ccc(NC(=S)Nc2ccccc2)cc1 [LED209, N-phenyl-4-[[(phenylamino)thioxomethyl]amino]benzenesulfonamide]
- Iso (β2 adrenergic)-stimulated cAMP levels [1]: not LED209 reduce
- basal cAMP levels [2]: not LED209 reduce
- signaling through human adrenergic receptors [2]: does not interfere with signaling through human adrenergic receptors
